Reference: PubChem BioAssay AID1030 (National Center for Advancing Translational Sciences (NCATS), 2008)
About 16,000 (7.3%) of roughly 220,000 compounds were called active. This list was built around the results that the source calls inconclusive (neither active nor inactive); the mix of calls is not that of the screen. Calls come from the whole dose curve; as a rule, active = well fitted inhibition curve with a large enough effect (not every such curve was filed as active); inconclusive = small, poorly fitted or top-dose-only effect, or another doubt; inactive = no such curve, though single readings can be large or run the other way. No potency is given beside an inconclusive call; the fits are too rough.

molecular target: Aldehyde dehydrogenase 1A1 (Homo sapiens) (UniProt P00352); assay: qHTS Assay for Inhibitors of Aldehyde Dehydrogenase 1 (ALDH1A1); conditions: Purified ALDH1A1, NADH fluorescence, propionaldehyde substrate; series mostly up to 75.3 µM; activity, negative = inhibition: at the top concentration;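 for activity, negative = inhibition: plate controls were no enzyme wells and a reference inhibitor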
Potency is the fitted concentration of half-maximal effect; tags give direction and shape of the fitted curve.

Sequence of UniProt P00352 (P00352 whole entry, looked up): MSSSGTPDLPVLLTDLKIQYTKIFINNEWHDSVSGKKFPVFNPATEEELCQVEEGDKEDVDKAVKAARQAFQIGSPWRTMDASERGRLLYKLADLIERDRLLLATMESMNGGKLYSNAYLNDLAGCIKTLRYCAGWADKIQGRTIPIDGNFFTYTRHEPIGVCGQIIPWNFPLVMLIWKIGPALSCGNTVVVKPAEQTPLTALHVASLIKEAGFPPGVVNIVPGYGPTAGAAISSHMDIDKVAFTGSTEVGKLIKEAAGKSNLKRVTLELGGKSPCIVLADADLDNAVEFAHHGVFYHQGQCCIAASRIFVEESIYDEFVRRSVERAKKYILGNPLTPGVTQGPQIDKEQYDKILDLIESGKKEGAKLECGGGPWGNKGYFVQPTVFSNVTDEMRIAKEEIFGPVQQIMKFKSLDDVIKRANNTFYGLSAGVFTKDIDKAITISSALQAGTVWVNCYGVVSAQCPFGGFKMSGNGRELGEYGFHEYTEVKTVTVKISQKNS

Q: Which Potency does the source give for `C=CCN1C=CC=C/C1=C1\SC(=S)N(C)C1=O` here?
A: The Potency was inconclusive [inhibitor, single point].

Q: How did the Potency turn out when `Cc1c(/C=N/NC(=O)c2sc3ccccc3c2Cl)cnn1C` was run?
A: The Potency was active: 20 µM.

Q: For `COc1cc(NC(=O)CCCC(=O)OCC(F)(F)C(F)F)nc(OC)n1`, which “activity, negative = inhibition” value is on record?
A: The value was inactive: -21.9%.

Q: With `CC1CCN(c2ccc(C(=O)O)cc2NS(=O)(=O)c2ccc(Br)cc2)CC1` as the compound, how does the Potency read?
A: The Potency was inconclusive [inhibitor, single point].

Q: With `CCc1cc2c(=O)n(Cc3ccco3)c(SCC(=O)N(C)C3CCS(=O)(=O)C3)nc2s1` (centres undefined) as the compound, how does the Potency read?
A: The Potency was active: 10 µM.

Q: How did the Potency turn out when `O=c1oc2ccccc2c(N2CCCC2)c1CN1CCCC1` was run?
A: The Potency was active: 14.1 µM.

Q: With `COc1ccc(N(CC(=O)NCc2cccnc2)S(=O)(=O)c2c(C)nn(C)c2C)cc1` as the compound, how does the “activity, negative = inhibition” value read?
A: The value was inactive: -4.09%.

Q: `Cc1nc(C)c(C(=O)Nc2ccccc2-c2ccccc2)o1` was tested. Which “activity, negative = inhibition” value did it give?
A: The value was inactive: -14.6%.

Q: With `CS(=O)(=O)N1N=C(c2ccco2)CC1c1ccccc1` (centres undefined) as the compound, how does the Potency read?
A: Its Potency is inconclusive [inhibitor, single point].

Q: Which “activity, negative = inhibition” value does the source give for `Cc1nnc2n1N=CC=C(c1ccccc1)S2` here?
A: The value was inactive: 10.1%.

Q: Which Potency does the source give for `CCCCCCn1cnc2c(c1=O)c1nc3ccccc3nc1n2Cc1cccs1` here?
A: Its Potency is inconclusive [inhibitor, partial curve, poor fit].

Q: With `CN(C)c1ccc(/C=C(\C#N)C(=O)Nc2nc3c(s2)CCN(Cc2ccccc2)C3)cc1` as the compound, how does the Potency read?
A: The Potency was inconclusive [inhibitor, single point].

Q: How did the Potency turn out when `CC(=O)Nc1ccccc1-c1ccc(C)o1` was run?
A: The Potency was inconclusive [inhibitor, single point].

Q: Which Potency does the source give for `O=C(CCCCCN1C(=O)c2ccccc2C1=O)NCCc1nc2ccccc2[nH]1` here?
A: Its Potency is active: 11.2 µM.

Q: For `Cc1nc2ccccc2n2c(O)c(CC(=O)O)cc12`, which Potency is on record?
A: Its Potency is inconclusive [inhibitor, single point].

Q: With `COc1cc(NC(=O)CSc2nnc3ccc(-c4ccncc4)nn23)cc(OC)c1` as the compound, how does the “activity, negative = inhibition” value read?
A: The value was inactive: 10.7%.

Q: With `COc1ccccc1N1CCN(Cc2cccs2)CC1` as the compound, how does the Potency read?
A: Its Potency is inconclusive [inhibitor, partial curve].

Q: Which Potency does the source give for `CS(=O)(=O)Nc1ccccc1C(=O)NCc1ccco1` here?
A: The Potency was inconclusive [inhibitor, single point].

Q: How did the “activity, negative = inhibition” value turn out when `COc1ccc(C(C)NC(=O)c2ccc([N+](=O)[O-])cc2)cc1OC` (centres undefined) was run?
A: Its value is inactive: 5.54%.

Q: With `NS(=O)(=O)c1cccc(NC(=O)CSc2nc3ccccc3n2-c2ccccc2)c1` as the compound, how does the Potency read?
A: Its Potency is inconclusive [inhibitor, single point].

Q: For `C=CCNC(=S)NNC(=O)c1ccc(OC(C)C)cc1`, which Potency is on record?
A: The Potency was inconclusive [inhibitor, single point].

Q: Which “activity, negative = inhibition” value does the source give for `CS(=O)(=O)Nc1ccc(C(=O)N2CCc3ccccc3C2)cc1` here?
A: The value was inactive: -4.73%.

Q: For `CCCc1cc(OC)c2c(c1)OCO2`, which Potency is on record?
A: Its Potency is inconclusive [inhibitor, single point].

Q: For `CCc1ccc(-c2cc(C(=O)NCc3ccco3)c3ccccc3n2)s1`, which Potency is on record?
A: Its Potency is inconclusive [inhibitor, partial curve].

Q: Which Potency does the source give for `Cc1noc(C)c1C(=O)N1CCN(C(=O)c2sc3cc(Cl)ccc3c2Cl)CC1` here?
A: Its Potency is inconclusive [inhibitor, partial curve].

Q: For `Cc1ccc2cc(C#N)c(N3CCCC3)nc2c1C`, which Potency is on record?
A: Its Potency is inconclusive [inhibitor, single point].

Q: With `COc1cccc(NC(=O)Nc2cc(C)ccc2OC)c1` as the compound, how does the Potency read?
A: The Potency was inconclusive [inhibitor, single point].

Q: How did the Potency turn out when `CC(C(=O)Nc1ccc(C#N)cc1)N(C)CC(=O)Nc1ccccc1Br` (centres undefined) was run?
A: Its Potency is inconclusive [inhibitor, single point].

Q: Which Potency does the source give for `CN(C)S(=O)(=O)c1ccc(C(=O)NC2CCCc3ccccc32)cc1` (centres undefined) here?
A: Its Potency is active: 20 µM.

Q: How did the Potency turn out when `Cc1cc(=O)oc2cc(NC(=O)c3cc([N+](=O)[O-])ccc3N3CCOCC3)ccc12` was run?
A: Its Potency is inconclusive [inhibitor, partial curve].

Q: For `CCCC(=O)Nc1nc2nc(-c3ccccc3)cc(-c3ccccc3)n2n1`, which Potency is on record?
A: Its Potency is inconclusive [inhibitor, partial curve].

Q: With `CC(=O)N1CCc2cc(Br)cc(S(=O)(=O)N3CCN(C(=O)c4ccco4)CC3)c21` as the compound, how does the Potency read?
A: The Potency was inconclusive [inhibitor, single point].

Q: `Cc1cc2ccccc2n1CCNC(=O)c1ccccc1` was tested. Which Potency did it give?
A: The Potency was inconclusive [inhibitor, partial curve].

Q: `COc1ccc(CNC(=O)c2csc(Cc3ccc(Cl)cc3)n2)cc1` was tested. Which “activity, negative = inhibition” value did it give?
A: Its value is inactive: -5.87%.

Q: For `O=C(Nc1ccc(N2CCCCC2)cc1)c1cccnc1Cl`, which Potency is on record?
A: The Potency was inconclusive [inhibitor, single point].

Q: `CCOC(=O)c1c(NC(=O)CSc2nnc(-c3ccncc3)n2Cc2ccco2)sc(C)c1C` was tested. Which Potency did it give?
A: The Potency was inconclusive [inhibitor, partial curve].

Q: How did the Potency turn out when `O=C(NC(=S)N1CCN(c2ccc(Cl)cc2[N+](=O)[O-])CC1)c1cccs1` was run?
A: The Potency was active: 7.94 µM.

Q: Which activity, negative = inhibition does the source give for `CC(=O)C[C@H](O)[C@@H](NC(=O)OC(C)(C)C)C(C)C` here?
A: Its activity, negative = inhibition is inactive: -4.95% [at 13.5 µM].

Q: Which Potency does the source give for `CC1(C)Cc2cccc(C(=O)Nc3ccc(F)cc3F)c2O1` here?
A: The Potency was inconclusive [inhibitor, single point].

Q: How did the “activity, negative = inhibition” value turn out when `COc1ccc2[nH]cc(CCNc3cc(-c4ccccc4C(F)(F)F)ncn3)c2c1` was run?
A: Its value is inactive: -8.31%.

Q: `OC[C@H]1O[C@@H](n2cnc3c(N[C@H]4C[C@H]5CC[C@@H]4C5)ncnc32)[C@H](O)[C@@H]1O` was tested. Which “activity, negative = inhibition” value did it give?
A: Its value is inactive: -9.09%.

Q: Which “activity, negative = inhibition” value does the source give for `COc1ccc(Cl)cc1C(=O)Nc1ccc(Br)c(C)n1` here?
A: The value was inactive: 1.53%.

Q: `CCCC(c1nnnn1Cc1ccco1)N1CCC(C(N)=O)CC1` (centres undefined) was tested. Which Potency did it give?
A: The Potency was active: 3.55 µM.

Q: Which Potency does the source give for `COc1ccc(C2CC(=O)N3CN(c4ccccc4F)CSC3=C2C#N)cc1OC` (centres undefined) here?
A: Its Potency is active: 7.08 µM.

Q: `CCN=C1S/C(=C\c2cc(OCC)c(O)cc2Br)C(=O)N1CC` was tested. Which Potency did it give?
A: The Potency was active: 0.891 µM.

Q: With `N#Cc1cccc(-c2nc(N3CCNCC3)c3ccccc3n2)c1` as the compound, how does the “activity, negative = inhibition” value read?
A: The value was inactive: -2.31%.

Q: How did the “activity, negative = inhibition” value turn out when `CSc1ccccc1C(=O)NC1CC2CCC1C2` (centres undefined) was run?
A: The value was inactive: 1.76%.

Q: For `Clc1ccccc1-c1nc(Nc2ccncc2)c2ccccc2n1`, which Potency is on record?
A: Its Potency is inconclusive [inhibitor, single point].

Q: For `Cc1cc(C(=O)COC(=O)c2ccc(Br)o2)c(C)n1Cc1ccco1`, which Potency is on record?
A: Its Potency is inconclusive [inhibitor, single point].
